# In the supplement of paper PMC8728848:
# Some of the results follow.
# What was measured:
# Test in all cases: glycan array binding signal (z-score within array); higher = stronger binding
# Settings in all cases: glycan notation: IUPAC condensed, linker removed
# [1] = biological target: Fuc(a1-2)[GalNAc(b1-3)]Gal
# Procedure, shortened: (§1)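 Arrays were curated from the Consortium for Functional Glycomics database, 3228 in total, and kept only where the protein sequence was available. Binding is expressed as a within-array Z-score. This score was averaged across arrays of the same protein sequence at different concentrations or buffers and across linkers, and negative values can be read as non-binding.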
# Fuc(a1-3)GlcNAc = biological target: Fuc(a1-3)GlcNAc
# Procedure, shortened: as §1
# [2] = biological target: Fuc(a1-3)[Gal(b1-4)]Glc6S
# Procedure, shortened: as §1
# [3] = biological target: Fuc(a1-3)[Gal(b1-4)]GlcNAc
# Procedure, shortened: as §1
# [4] = biological target: Fuc(a1-3)[Gal(b1-4)]GlcNAc(b1-2)Man
# Procedure, shortened: as §1
# [5] = biological target: Fuc(a1-3)[Gal(b1-4)]GlcNAc(b1-2)Man(a1-3)[Fuc(a1-3)[Gal(b1-4)]GlcNAc(b1-2)Man(a1-6)]Man(b1-4)GlcNAc(b1-4)GlcNAc
# Procedure, shortened: as §1
# [6] = biological target: Fuc(a1-3)[Gal(b1-4)]GlcNAc(b1-2)Man(a1-3)[Fuc(a1-3)[Gal(b1-4)]GlcNAc(b1-2)Man(a1-6)]Man(b1-4)GlcNAc(b1-4)[Fuc(a1-6)]GlcNAc
# Procedure, shortened: as §1
# [7] = biological target: Fuc(a1-3)[Gal(b1-4)]GlcNAc(b1-3)Gal(b1-3)[Fuc(a1-4)]GlcNAc
# Procedure, shortened: as §1
# [8] = biological target: Fuc(a1-3)[Gal(b1-4)]GlcNAc(b1-3)Gal(b1-4)[Fuc(a1-3)]GlcNAc
# Procedure, shortened: as §1
# [9] = biological target: Fuc(a1-3)[Gal(b1-4)]GlcNAc(b1-3)Gal(b1-4)[Fuc(a1-3)]GlcNAc(b1-3)Gal(b1-4)[Fuc(a1-3)]GlcNAc
# Procedure, shortened: as §1
# [10] = biological target: Fuc(a1-3)[Gal(b1-4)]GlcNAc(b1-3)GalNAc
# Procedure, shortened: as §1
# [11] = biological target: Fuc(a1-3)[Gal(b1-4)]GlcNAc(b1-6)GalNAc
# Procedure, shortened: as §1
# [12] = biological target: Fuc(a1-3)[Gal(b1-4)]GlcNAc(b1-6)[Gal(b1-3)GlcNAc(b1-3)]Gal(b1-4)Glc
# Procedure, shortened: as §1
# [13] = biological target: Fuc(a1-3)[Gal(b1-4)]GlcNAc6S
# Procedure, shortened: as §1
# [14] = biological target: Fuc(a1-3)[Gal3S(b1-4)]Glc
# Procedure, shortened: as §1
# [15] = biological target: Fuc(a1-3)[Gal3S(b1-4)]GlcNAc
# Procedure, shortened: as §1
# [16] = biological target: Fuc(a1-3)[Gal3S(b1-4)]GlcNAc6S
# Procedure, shortened: as §1
# [17] = biological target: Fuc(a1-3)[GalNAc(b1-4)]GlcNAc
# Procedure, shortened: as §1
# [18] = biological target: Fuc(a1-3)[GalNAc(b1-4)]GlcNAc6S
# Procedure, shortened: as §1
# Fuc(a1-4)GlcNAc = biological target: Fuc(a1-4)GlcNAc
# Procedure, shortened: as §1
# Fuc(b1-3)GlcNAc = biological target: Fuc(b1-3)GlcNAc
# Procedure, shortened: as §1
# Gal(a1-2)Gal = biological target: Gal(a1-2)Gal
# Procedure, shortened: as §1
# Gal(a1-3)Gal = biological target: Gal(a1-3)Gal
# Procedure, shortened: as §1
# Gal(a1-3)Gal(b1-3)GlcNAc = biological target: Gal(a1-3)Gal(b1-3)GlcNAc
# Procedure, shortened: as §1
# [19] = biological target: Gal(a1-3)Gal(b1-3)GlcNAc(b1-2)Man
# Procedure, shortened: as §1
# [20] = biological target: Gal(a1-3)Gal(b1-3)GlcNAc(b1-2)Man(a1-3)[Gal(a1-3)Gal(b1-3)GlcNAc(b1-2)Man(a1-6)]Man(b1-4)GlcNAc(b1-4)GlcNAc
# Procedure, shortened: as §1
# [21] = biological target: Gal(a1-3)Gal(b1-3)GlcNAc(b1-3)GalNAc
# Procedure, shortened: as §1
# [22] = biological target: Gal(a1-3)Gal(b1-3)GlcNAc(b1-6)GalNAc
# Procedure, shortened: as §1
# [23] = biological target: Gal(a1-3)Gal(b1-3)[Fuc(a1-4)]GlcNAc(b1-2)Man(a1-3)[Gal(a1-3)Gal(b1-3)[Fuc(a1-4)]GlcNAc(b1-2)Man(a1-6)]Man(b1-4)GlcNAc(b1-4)GlcNAc
# Procedure, shortened: as §1
# Gal(a1-3)Gal(b1-4)Glc = biological target: Gal(a1-3)Gal(b1-4)Glc
# Procedure, shortened: as §1
# Gal(a1-3)Gal(b1-4)GlcNAc = biological target: Gal(a1-3)Gal(b1-4)GlcNAc
# Procedure, shortened: as §1
# [24] = biological target: Gal(a1-3)Gal(b1-4)GlcNAc(b1-2)Man
# Procedure, shortened: as §1
# [25] = biological target: Gal(a1-3)Gal(b1-4)GlcNAc(b1-2)Man(a1-3)[Gal(a1-3)Gal(b1-4)GlcNAc(b1-2)Man(a1-6)]Man(b1-4)GlcNAc(b1-4)GlcNAc
# Procedure, shortened: as §1
# [26] = biological target: Gal(a1-3)Gal(b1-4)GlcNAc(b1-3)GalNAc
# Procedure, shortened: as §1
# [27] = biological target: Gal(a1-3)Gal(b1-4)GlcNAc(b1-6)GalNAc
# Procedure, shortened: as §1
# [28] = biological target: Gal(a1-3)Gal(b1-4)[Fuc(a1-3)]GlcNAc
# Procedure, shortened: as §1
# [29] = biological target: Gal(a1-3)Gal(b1-4)[Fuc(a1-3)]GlcNAc(b1-2)Man(a1-3)[Gal(a1-3)Gal(b1-4)[Fuc(a1-3)]GlcNAc(b1-2)Man(a1-6)]Man(b1-4)GlcNAc(b1-4)GlcNAc
# Procedure, shortened: as §1
binder,measurement,setting,value
"Epa9 (Candida glabrata), CAGL0A01386g (protein) MGSSHHHHHHSSGLVPRGSHMDITPFAHYPRPEGCSSPPNAVSVGLHMDLYNYPYLYVKNPRTGFTNDTDSDADGETDGDSAGGIEGRAGQCWNPEYQDPNFPRYGYKKYGSFGSSDHVNGKISWDHNEFKEGCKPIMARLPTAYNYPAKITFSNFTMVLSGYFKPKSTGLYKFEIHADDFILFNFGSKNAFECCNREESIDNFGPYVAYAMWPNEADQELEVYLFEDSYYPIRLFYNNRDYHSKFMVGFYPPNTEEITYDFDGYLYMLDDTGNECKDSIRYKTVCDD",glycan array binding signal (z-score),[1],-0.476
same,glycan array binding signal (z-score),Fuc(a1-3)GlcNAc,-0.48
same,glycan array binding signal (z-score),[2],-0.393
same,glycan array binding signal (z-score),[3],-0.415
same,glycan array binding signal (z-score),[4],-0.44
same,glycan array binding signal (z-score),[5],-0.441
same,glycan array binding signal (z-score),[6],-0.354
same,glycan array binding signal (z-score),[7],-0.353
same,glycan array binding signal (z-score),[8],-0.412
same,glycan array binding signal (z-score),[9],-0.366
same,glycan array binding signal (z-score),[10],-0.372
same,glycan array binding signal (z-score),[11],-0.25
same,glycan array binding signal (z-score),[12],-0.037
same,glycan array binding signal (z-score),[13],-0.216
same,glycan array binding signal (z-score),[14],-0.43
same,glycan array binding signal (z-score),[15],-0.438
same,glycan array binding signal (z-score),[16],-0.218
same,glycan array binding signal (z-score),[17],-0.412
same,glycan array binding signal (z-score),[18],-0.463
same,glycan array binding signal (z-score),Fuc(a1-4)GlcNAc,-0.518
same,glycan array binding signal (z-score),Fuc(b1-3)GlcNAc,-0.461
same,glycan array binding signal (z-score),Gal(a1-2)Gal,-0.5
same,glycan array binding signal (z-score),Gal(a1-3)Gal,0.482
same,glycan array binding signal (z-score),Gal(a1-3)Gal(b1-3)GlcNAc,1.37
same,glycan array binding signal (z-score),[19],2.1
same,glycan array binding signal (z-score),[20],0.125
same,glycan array binding signal (z-score),[21],1.04
same,glycan array binding signal (z-score),[22],1.27
same,glycan array binding signal (z-score),[23],-0.077
same,glycan array binding signal (z-score),Gal(a1-3)Gal(b1-4)Glc,0.746
same,glycan array binding signal (z-score),Gal(a1-3)Gal(b1-4)GlcNAc,2.25
same,glycan array binding signal (z-score),[24],1.09
same,glycan array binding signal (z-score),[25],4.07
same,glycan array binding signal (z-score),[26],1.25
same,glycan array binding signal (z-score),[27],1.01
same,glycan array binding signal (z-score),[28],0.217
same,glycan array binding signal (z-score),[29],0.259
